Experimental data as given in PMC4336329 (PLoS ONE, 2015).
About 2,200 (0.71%) of roughly 310,000 compounds showed an effect of 50% or more. Effects have a minus sign here. The list shows a part of the results.

These compounds were tested against human ether-à-go-go-related gene (hERG) potassium channel (human, UniProt Q12809) (assay: primary screen, population patch clamp on CHO cells stably expressing hERG).
human ether-à-go-go-related gene (hERG) potassium channel, sequence (Q12809 whole entry, looked up): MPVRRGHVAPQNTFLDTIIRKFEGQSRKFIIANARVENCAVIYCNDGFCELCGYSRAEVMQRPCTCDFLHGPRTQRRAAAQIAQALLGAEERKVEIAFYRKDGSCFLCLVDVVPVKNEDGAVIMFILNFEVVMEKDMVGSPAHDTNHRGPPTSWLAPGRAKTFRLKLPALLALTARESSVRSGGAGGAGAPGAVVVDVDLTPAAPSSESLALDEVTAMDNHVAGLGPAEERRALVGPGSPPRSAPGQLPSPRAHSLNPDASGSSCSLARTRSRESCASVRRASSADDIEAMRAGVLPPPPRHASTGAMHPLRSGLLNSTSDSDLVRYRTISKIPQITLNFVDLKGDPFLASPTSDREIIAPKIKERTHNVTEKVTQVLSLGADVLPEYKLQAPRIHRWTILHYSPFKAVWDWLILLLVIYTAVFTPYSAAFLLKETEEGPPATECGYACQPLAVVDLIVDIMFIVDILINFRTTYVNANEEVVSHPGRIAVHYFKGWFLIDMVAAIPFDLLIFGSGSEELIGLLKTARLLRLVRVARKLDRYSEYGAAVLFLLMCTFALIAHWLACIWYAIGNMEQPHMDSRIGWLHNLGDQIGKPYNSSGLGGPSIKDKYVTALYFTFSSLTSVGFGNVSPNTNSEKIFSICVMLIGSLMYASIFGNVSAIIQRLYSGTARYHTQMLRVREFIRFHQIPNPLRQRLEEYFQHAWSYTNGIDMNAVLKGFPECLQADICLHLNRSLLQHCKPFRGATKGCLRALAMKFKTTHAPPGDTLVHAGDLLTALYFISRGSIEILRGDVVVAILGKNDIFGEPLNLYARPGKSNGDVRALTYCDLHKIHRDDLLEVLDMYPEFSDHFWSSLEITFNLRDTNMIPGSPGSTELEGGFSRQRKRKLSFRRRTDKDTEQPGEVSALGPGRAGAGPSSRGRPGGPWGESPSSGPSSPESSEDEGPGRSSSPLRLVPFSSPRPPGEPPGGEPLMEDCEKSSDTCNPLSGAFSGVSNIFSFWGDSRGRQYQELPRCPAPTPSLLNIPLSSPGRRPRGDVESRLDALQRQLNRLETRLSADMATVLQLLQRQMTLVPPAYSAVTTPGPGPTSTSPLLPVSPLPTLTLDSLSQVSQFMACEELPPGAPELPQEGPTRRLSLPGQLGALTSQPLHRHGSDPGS

Row | Compound | hERG current change (%, negative = inhibition) at 1uM [%]
1 | CC(C)CC(=O)NC(=S)NNC(=O)c1ccc(NC(=O)C2CCCCC2)cc1 | 10.3
2 | CCN(CC(=O)Nc1cc(Cl)ccc1C)C(=O)Cn1c(=O)cnc2ccccc21 | -1.19
3 | CS(=O)(=O)N1CCN(c2ccc(NC(=O)COc3ccccc3)cc2)CC1 | -5.24
4 | CN1CCN(c2ccc(NC(=O)c3cccc(OCc4ccccc4)c3)cc2)CC1 | 8.13
5 | O=C(Nc1ccccc1Cl)c1cc(S(=O)(=O)N2CCCC(C(=O)O)C2)ccc1F (stereo not shown) | -2.71
6 | CN(C)C(=O)C(=O)c1cccn1-c1ccccc1C#N | -2.28
7 | COc1cc(C2C(C#N)=C(N)Oc3cc(O)ccc32)cc(OC)c1OC (stereo not shown) | -0.47
8 | O=C(CN1C(=O)C2C3C=CC(C3)C2C1=O)Nc1nc(-c2ccccn2)cs1 (stereo not shown) | 4.94
9 | CC(C)c1[nH]nc2c1C(c1cccnc1)C(C#N)=C(N)O2 (stereo not shown) | 2.83
10 | CC(C)CC(=O)Nc1nc2c(c(=O)[nH]1)CCCC2 | 9.13
11 | COc1ccc(CCNC(=O)C2CCN(S(C)(=O)=O)CC2)cc1 | -7.11
12 | CCCn1c(SCCc2ccccc2)nc2c1c(=O)[nH]c(=O)n2C | 9.8
13 | O=C(NCCN1CCCCC1)Nc1ccccc1Cl | 15.3
14 | CC(=O)c1ccc(OCC(=O)N2CCCC(N(C)Cc3ccccc3)C2)cc1 (stereo not shown) | -1.38
15 | CCOCCCn1c(SCC(=O)Nc2ccc3[nH]c(=O)[nH]c3c2)nc2ccccc2c1=O | 14.5
16 | COc1ccccc1C(=O)Nc1cccc2cccnc12 | 9.04
17 | CCOc1ccccc1NC(=O)CSc1nnc(CNC(=O)c2c(F)cccc2Cl)o1 | 11.3
18 | O=C1CC(c2ccccc2F)C2=C(COC2=O)N1 (stereo not shown) | 14.5
19 | Cc1noc(C)c1CC(=O)N1CCCC(N2CCN(c3ccccc3F)CC2)C1 (stereo not shown) | 17.3
20 | FC(F)(F)c1cc(-c2ccccc2)nc(NCc2cccnc2)n1 | 1.08
21 | COc1cc(/C=C/C(=O)OCC(=O)N2CCc3ccccc3C2)ccc1O | 2.33
22 | CCN(CC)C(=O)CN1C(=O)c2cccc3cccc(c23)C1=O | 11.6

Row | Compound | hERG current change (%, negative = inhibition) at 1uM [%]
23 | O=C(CCNC(=O)c1ccccc1Cl)Nc1ccc2c(c1)OCO2 | 12.9
24 | CC1CC(=O)N(c2ccc(N(C)Cc3ccccc3)c([N+](=O)[O-])c2)C1=O (stereo not shown) | 5.16
25 | Cc1ccc(SCc2nc3ccccc3n2CC(=O)Nc2ccc(Cl)cc2)cc1 | 6.08
26 | c1ccc(CSc2nnnn2-c2ccc3c(c2)OCCO3)nc1 | 11.4
27 | CCOc1ccc(NC(=O)C2C3CCC4C(CCC32)C4(Cl)Cl)cc1 (stereo not shown) | 12.7
28 | CC1=CC(C)C(/C=N/n2cnnc2)C(C)C1 (stereo not shown) | -4.48
29 | CC1CCCN(c2ccc([N+](=O)[O-])cc2C(=O)c2ccccc2)C1 (stereo not shown) | 3.39
30 | CCOC(=O)N1CCC(NC(=O)c2cc(C(=O)NC3CCCC3)ccc2CO)CC1 | 14.6
31 | FC(F)(F)c1ccnc(N2CCN(Cc3cnc(-c4ccccc4)[nH]3)CC2)c1 | 3.11
32 | O=c1c2ccccc2nc(N2CCCC2)n1-c1ccc(Cl)cc1 | 1.69
33 | COc1ccc(OCC(=O)Nc2ccc(NC(=O)c3ccccc3Cl)c(OC)c2)cc1 | -7.84
34 | CN(C1CCCCC1)S(=O)(=O)c1ccc(C(=O)O)cc1 | 0.593
35 | Cc1cc(NC(=O)c2ccc3c(c2)OCCO3)ccc1NC(=O)c1cc2ccccc2o1 | 9.88
36 | Cc1noc(C)c1COC(=O)[C@H](C)NS(=O)(=O)c1ccc(Cl)c(Cl)c1 | 2.96
37 | Cc1ccc(C(=O)/C=C/Nc2ccccc2C(N)=O)cc1 | 19.7
38 | O=C(NN=C1CCCC1)C(=O)Nc1cccc(C(F)(F)F)c1 | 7.53
39 | CC(C)c1noc2ncc(C(=O)c3cc(Cl)cc(Cl)c3O)cc12 | 19.3
40 | CC1CCCC(C)N1/N=C/c1ccc(O)cc1 (stereo not shown) | 8.15
41 | COC(=O)C1=C(c2ccc(OC(F)(F)F)cc2)C[C@@H]2CC[C@H]1N2C(=O)NCc1cccc2ccccc12 | 14.1
42 | COc1ccc(N(Cc2ccccc2)N=O)cc1 | 7.99
43 | CSCC[C@H](NC(=O)c1ccco1)c1nnc2ccccn12 | 13
44 | COc1ccc(C(=O)NCC(=O)c2ccccc2)cc1 | 13.4

Row | Compound | hERG current change (%, negative = inhibition) at 1uM [%]
45 | CCC1CCCCN1S(=O)(=O)c1ccc(NC(=O)C2CCCO2)cc1 (stereo not shown) | 13.2
46 | CCN(C(=O)CSc1nnc(-c2ccccc2Br)o1)C1CCS(=O)(=O)C1 (stereo not shown) | 3.66
47 | Cc1ccsc1C(=O)N(C)C1CCS(=O)(=O)C1 (stereo not shown) | 9.2
48 | Cc1ccc(-c2nnc(SCC(=O)N/N=C/c3ccc(C(=O)O)cc3)n2C2CCCCC2)cc1 | 16
49 | C/C(=N\OCc1nc2ccccc2c(=O)n1/N=C/c1cc([N+](=O)[O-])ccc1O)c1ccccc1 | 12.1
50 | CCCc1nnc(NC(=O)CC(C)c2ccccc2)s1 (stereo not shown) | 12.6
51 | Cc1nc(-c2ccncc2)nc(NCCNc2ncccc2C(F)(F)F)c1Cl | 10.2
52 | Cc1cc(N2C(=O)C(O)=C(C(=O)c3cccs3)C2c2ccccc2)no1 (stereo not shown) | -8.24
53 | CN(C(=O)Cn1c(=O)oc2cc(S(=O)(=O)N3CCCC3)ccc21)C1CCCCC1 | 36
54 | COc1cc(/C=C2\SC(=O)NC2=O)ccc1OCc1ccc(Cl)nc1 | 18.7
55 | CCOC(=O)c1nc(N)c(=O)n(-c2ccc(C)cc2)n1 | 15.7
56 | CN(C)S(=O)(=O)c1ccc(NC(=O)c2c(F)cccc2Cl)cc1 | 14.3
57 | CCN(CC)C(=O)CSc1ncnc2c(-c3cccs3)nsc12 | 12.4
58 | CS(=O)(=O)N1CCCC(C(=O)Nc2ccc(F)c(F)c2)C1 (stereo not shown) | 12.5
59 | Cc1ccc(C(=O)N/C(=C\c2ccccc2)C(=O)NCc2ccncc2)cc1 | -77.1
60 | COc1cc(S(=O)(=O)Nc2cc(C)cc(C)c2)ccc1F | 12.9
61 | Cc1ccc(C)c2[nH]c(=O)c(CN(CCN3CCOCC3)Cc3nnnn3CC3CCCO3)cc12 (stereo not shown) | 8.29
62 | O=c1oc(Nc2cccc(F)c2)nc2ccccc12 | 7.95
63 | CCn1c(CNC(=O)COc2ccc(C(C)C)cc2)nnc1SCC(=O)Nc1ccccc1C(C)C | -12.8
64 | CCOc1ccc(C(=O)Nc2ccc(S(=O)(=O)Nc3nccc(C)n3)cc2)cc1OCC | -5.8
65 | CC(C)CCN1CCN(CC(c2ccccc2)c2ccccc2)CC1CCO (stereo not shown) | -81.9
66 | O=C(NCc1cccnc1)C(=O)NCC1OCCCN1S(=O)(=O)c1ccccc1 (stereo not shown) | 20.4

Row | Compound | hERG current change (%, negative = inhibition) at 1uM [%]
67 | O=c1sc(Nc2ccccc2)nc2ccsc12 | 7.66
68 | COc1ccc(-n2c(C)cc(C(=O)COc3ccc(C)nc3[N+](=O)[O-])c2C)cc1 | 1.53
69 | Cc1cccnc1-n1c(CCN2C(=O)c3ccccc3C2=O)nc2ccccc2c1=O | 9.68
70 | O=C1c2ccccc2C(=O)N1c1cccnc1 | 1.09
71 | COC(=O)c1ccc(NC(=S)N2CCN(C(=O)c3ccco3)CC2)cc1 | 0.451
72 | COc1cccc(CN(C)C(=O)c2sccc2-c2ccccc2)c1OC | 12.5
73 | O=C(COc1ccccc1)Nc1c2c(nn1-c1ccccc1)CS(=O)C2 (stereo not shown) | 5.72
74 | CC(=O)c1cc2c(cc1NC(=O)c1ccco1)OCCO2 | 11.2
75 | COc1ccc(C2=NO[C@@H]3[C@@H]4C[C@@H]([C@H]5C(=O)N(C)C(=O)[C@@H]45)[C@H]23)cc1 | 2.03
76 | Cc1cc(NC(=O)CSc2nc(C3CC3)nc3sc4c(c23)CCC(C)C4)no1 (stereo not shown) | 17.1
77 | CN1CCN(CCCNC(=O)c2ccc(/C=C3\Oc4ccccc4N(Cc4ccccc4F)C3=O)cc2)CC1 | 10.7
78 | O=C1NC(=O)/C(=C/c2ccco2)N1 | 10
79 | Fc1cccc2sc(Nc3nc4c(F)cccc4s3)nc12 | 3.7
80 | COC(=O)c1ccc(OCc2nn[nH]n2)cc1 | 12.5
81 | Cc1ccc(S(=O)(=O)N2CCC(C(=O)N3CCC4(CC3)OCCO4)CC2)cc1 | 6.92
82 | COc1ccc(CCN(Cc2ccccn2)C(=S)Nc2ccccc2F)cc1OC | 0.501
83 | COc1ccc(-c2noc(CN3CCN(c4ccccc4F)CC3)n2)cc1OC | 12.8
84 | C=CCN(CC=C)C(=O)CN1C(=O)c2ccccc2C1=O | 12.3
85 | COc1ccc(N2CCN(C(=O)COc3ccc4c(C)c(C)c(=O)oc4c3C)CC2)cc1 | 12.2
86 | O=c1oc2ccccc2c(Nc2ccc3ncccc3c2)c1[N+](=O)[O-] | 1.67
87 | CN(C)C=Nc1ncc2c([nH]c3ccccc32)c1C#N | 7.87
88 | Cc1cc(C)c(C#N)c(SCc2ccc(C#N)cc2)n1 | 7.48
